Assay results: the supplement of paper PMC11417369
± gives the standard deviation of the averaged measurements. The list shows a part of the results.

System: PfAP2-EXP AP2 domain (GST-tagged)
Experiment: gcPBM binding intensity (ln(normalized median fluorescence intensity)); higher = stronger DNA binding
Outline: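 Alexa488 anti-GST antibody, scanned at 488 nm, detected GST-tagged P. falciparum DNA-binding domains that had been expressed in E. coli and incubated for 1 h on an Agilent 4 × 180k array. The array carried primer-extended double-stranded 36-bp intergenic genomic probes and negative controls. Binding intensity is the highest Masliner-normalised natural-log median intensity across replicate spots of either orientation of each probe.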

Sequence | gcPBM binding intensity (ln)
AAAAAAAAAAAAAAAACACACATTTTAAGAAAAAAA [CACACA_site2926] | 8.525 ± 0.049
TACAAAATAAATGGAACATGCAAAAAAATTGATTAA [TGCATGCA_site790] | 8.95 ± 0.37
ATTATATTCTTTACTACCAATTAGTAGAAAATAAAA [CACACA_negctrl_site1096] | 8.3 ± 0.49
ATATATATATGTTTGTGTACTTATGATATCATATAA [XGTACX_site3276] | 9.66 ± 0.099
TTTTAAAAAATATAATAATATAAATATGTTTTATAC [CACACA_negctrl_site643] | 8.08 ± 0.28
TAAATAAATAAAAATAGTACATAATTATTATTATTA [XGTACX_site4981] | 8.19 ± 0.26
AATATATATATATATATTTTTGTTAGAATATGGAAT [GTGCAC_negctrl_site434] | 8.4 ± 0.36
TTAAAATAGCTAGTTTGTACATAAAATATATTACTT [XGTACX_site202] | 8.43 ± 0.45
CTTAATAAGAATAAATGTACAAGGGATAAAAAATTT [XGTACX_site3213] | 8.74 ± 0.49
ATAGAATATTAATAATTAAAAATAAAATAAAATAAA [CACACA_negctrl_site1810] | 8.49 ± 0.35
TATTTAATTATTTGTAGTACGATTAATATTTAATGA [XGTACX_site3553] | 8.19 ± 0.35
AAAAAGAAAAATTGCACACACTTATAAAAATATACG [CACACA_site6074] | 8.57 ± 0.3
TTTTACAATGAAATATGTACTTAAATGTCCAAATTC [XGTACX_site781] | 8.17 ± 0.31
TATATAAGAATATATACACACATATATGTATATATA [CACACA_site2178] | 8.16 ± 0.4
TTAACCATTAATTCTCTACACACTTTTATTTTATTT [CACACA_site8522] | 8.66 ± 0.54
GTTAACAAATAATGCACACAAATGGATAAAATTATA [CACACA_site3725] | 8.77 ± 0.27
AAGAACAAATATGAGGTGCAACACAATATATTATTA [GTGCAC_site9965] | 8.76 ± 0.26
AATATAATTTTTTATTGTACAAAAAAATTATTTAAT [XGTACX_site3248] | 8.47 ± 0.53
TATTATTAATATGTATGGTTGTAATCTGTGTCTCCT [TGCATGCA_negctrl_site190] | 8.77 ± 0.3

Sequence | gcPBM binding intensity (ln)
CATTTTGTAAGATATGCACACATGGATCATATTTTA [CACACA_site423] | 8.38 ± 0.28
TTTTTTTTTATCAAATGTACATATATATAATAATAA [XGTACX_site3941] | 8.3 ± 0.4
AATAAGTATACACATACACACACACCCAAAAAAAAA [CACACA_site8034] | 8.62 ± 0.6
GTGTAAATATAATTAGTTTCACAAAACAAATATTTA [CACACA_negctrl_site717] | 8.12 ± 0.4
ATGGGTATTAAGTGTACACATATAGTGTATTTTGTT [CACACA_site4452] | 8.61 ± 0.29
AGGCACAAAATTAAATGTACATATATATATATATAT [XGTACX_site3323] | 10.1 ± 0.48
TATATATATGAGTATACACACCTGATAAAGGTATAT [CACACA_site5462] | 8.53 ± 0.39
GATTACTAGAAATGCACACACTGATAAAATAAGGAA [CACACA_site6131] | 8.88 ± 0.37
TTAAACTTGAAACACACACACACACCGATATAAAAA [CACACA_site4578] | 8.71 ± 0.53
AGATTGGAACATTAAAGTACTTACTTTTTTTTTTTT [XGTACX_site8017] | 8.16 ± 0.4
ATAAAAATATTGTCTAGTACATATTTATAATAAAAA [XGTACX_site7523] | 8.18 ± 0.35
AGAAATATATCTATTTGTCCGTATATTCATATTTAT [XGTACX_site8427] | 8.61 ± 0.4
TATATACTCAAACACACACACACATACACAGACATA [CACACA_site5025] | 8.77 ± 0.57
ATTTTTTTTTTTTTTTTTTTTGCACCATAAAATAAT [CACACA_negctrl_site1324] | 8.42 ± 0.38
TATATATATATGTGTACACATTTGTCAGATTATATA [CACACA_site4813] | 9.89 ± 0.22
ATTTTGACATTATATAGTACATATAATTTACATTTA [XGTACX_site3024] | 8.56 ± 0.45
TATATATTCTTTTAATGTACATATTGTATTATATCC [XGTACX_site4501] | 8.72 ± 0.41
ATATATTTAAACAAAAGTACAAATCATAAATTCAAG [XGTACX_site3633] | 8.38 ± 0.26
ATTTTTTAAAAAGTAACACACACTCTTATATATAAT [CACACA_site9206] | 8.51 ± 0.48

Sequence | gcPBM binding intensity (ln)
TCTTTATCTTCTTATACACACATTTATTAAAAAAAA [CACACA_site445] | 8.87 ± 0.56
TGACATAAAAAATATACACACTATAATATTTATACT [CACACA_site6776] | 8.26 ± 0.4
AAAAGAAATTTGGGCACATGCGAATTTATAATTTAT [TGCATGCA_site960] | 8.61 ± 0.47
TAAAGTATTACAACCACACACACACCGATATATTAT [CACACA_site9382] | 8.68 ± 0.51
TAATTTAATAATTAGACACACATGTCTAAAATAAAA [CACACA_site2527] | 8 ± 0.35
TATATATATATATATACATGCATATTTTTTATTTTT [TGCATGCA_site464] | 10.3 ± 0.31
TATATTTATCTGATAACACACATAAATTAGACATTT [CACACA_site6887] | 8.26 ± 0.35
TGTCTTATATATATTACACACTATATGAAAAAATAT [CACACA_site1487] | 8.47 ± 0.36
TTTTTTATATATATTTGTACATATTGCATGTTCCCT [XGTACX_site7143] | 9.15 ± 0.38
AATATGGTTATATATATATATATATATATATATATT [GTGCAC_negctrl_site566] | 8.945 ± 0.078
CCTATCCATACATATACACACATATCTATTTATATA [CACACA_site1669] | 8.76 ± 0.41
TTTGAAATAAATAATGCACACTCTACATATATACGT [CACACA_site2244] | 8.655 ± 0.021
ATTGTTTTATATAGAACACACATAAAAATCTATATG [CACACA_site6681] | 8.41 ± 0.45
TTATTATATAAAATAAATAACAAAAAAAATAAAATA [GTGCAC_negctrl_site548] | 8.45 ± 0.43
CAACATTTATATTTTACACACATCATTTAAGCGCTT [CACACA_site992] | 8.54 ± 0.53
AAATAAAATACAAGTTGTACTATAAGCTTTTTATAT [XGTACX_site8021] | 8.48 ± 0.42
AATATATAAGTGTTGTGTACTAAAGTATTTTCCTAT [XGTACX_site1622] | 8.59 ± 0.38
AAAAAAAAAAGACACACACACATATTTATTTATATA [CACACA_site6484] | 8.35 ± 0.64
